{"source": "paper PMC4336329", "about": "(PLoS ONE, 2015)", "note": "Hit rate of the full screen: of about 310,000 compounds, about 14,000 (4.5%) showed an effect of 50% or more. Effects have a minus sign here. The list shows a part of the results.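 Further: peak tail current of the secondary pulse compared with the same well before compound.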"}
{"biological_target": "human ether-à-go-go-related gene (hERG) potassium channel (human, UniProt Q12809)", "sequence (Q12809 whole entry, looked up)": "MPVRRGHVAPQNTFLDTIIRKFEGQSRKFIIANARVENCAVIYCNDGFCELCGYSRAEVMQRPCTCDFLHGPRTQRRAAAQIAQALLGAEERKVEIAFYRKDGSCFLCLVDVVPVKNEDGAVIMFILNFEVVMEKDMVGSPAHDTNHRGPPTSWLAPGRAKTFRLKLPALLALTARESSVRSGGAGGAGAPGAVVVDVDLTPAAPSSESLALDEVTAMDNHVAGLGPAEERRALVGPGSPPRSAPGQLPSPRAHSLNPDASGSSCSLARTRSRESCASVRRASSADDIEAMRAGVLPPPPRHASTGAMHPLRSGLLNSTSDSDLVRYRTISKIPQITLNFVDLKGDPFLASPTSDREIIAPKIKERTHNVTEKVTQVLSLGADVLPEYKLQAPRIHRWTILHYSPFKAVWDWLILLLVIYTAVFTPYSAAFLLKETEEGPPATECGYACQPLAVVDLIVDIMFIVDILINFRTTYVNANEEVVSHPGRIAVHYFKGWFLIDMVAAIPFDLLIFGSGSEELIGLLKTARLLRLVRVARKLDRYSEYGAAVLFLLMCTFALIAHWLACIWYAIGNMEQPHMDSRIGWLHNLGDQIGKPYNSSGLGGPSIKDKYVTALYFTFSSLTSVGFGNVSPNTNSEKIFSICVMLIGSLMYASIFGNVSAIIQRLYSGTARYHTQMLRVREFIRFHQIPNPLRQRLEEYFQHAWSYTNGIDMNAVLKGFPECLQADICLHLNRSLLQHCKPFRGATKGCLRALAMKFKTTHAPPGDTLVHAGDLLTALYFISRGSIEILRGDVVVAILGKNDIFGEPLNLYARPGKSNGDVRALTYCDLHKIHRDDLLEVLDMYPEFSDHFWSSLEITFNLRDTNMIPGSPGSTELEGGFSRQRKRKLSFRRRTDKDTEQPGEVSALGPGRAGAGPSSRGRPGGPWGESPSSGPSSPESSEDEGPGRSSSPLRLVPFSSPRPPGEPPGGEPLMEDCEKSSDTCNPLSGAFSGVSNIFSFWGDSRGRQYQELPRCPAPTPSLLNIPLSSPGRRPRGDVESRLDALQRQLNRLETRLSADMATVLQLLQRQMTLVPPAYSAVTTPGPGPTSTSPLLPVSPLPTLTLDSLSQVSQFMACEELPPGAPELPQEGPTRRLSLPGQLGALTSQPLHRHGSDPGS", "assay": "primary screen, population patch clamp on CHO cells stably expressing hERG", "units": {"hERG current change (%, negative = inhibition) at 10uM": "%"}}
{"smiles": "N#C/C(=N\\Nc1ccc(Cl)cc1)C(=N)N1CCCCCC1", "hERG current change (%, negative = inhibition) at 10uM": 62.5}
{"smiles": "Cc1ccc(C(=O)O)cc1NC(=S)NC(=O)Cc1ccccc1", "hERG current change (%, negative = inhibition) at 10uM": 6.02}
{"smiles": "CCOc1ccc(-c2cc(C(=O)NCCCN3CCCC3)c3ccccc3n2)cc1", "hERG current change (%, negative = inhibition) at 10uM": -19.4}
{"smiles": "Cl.O=[N+]([O-])c1ccc(O)c(Nc2ncnc3ccc(Br)cc23)c1", "hERG current change (%, negative = inhibition) at 10uM": 25.3}
{"smiles": "COc1ccc(N(C(=O)COc2ccc(F)cc2)S(=O)(=O)c2ccc(C)cc2)cc1", "hERG current change (%, negative = inhibition) at 10uM": 0.866}
{"smiles": "CC1CCCN(c2ccc(C(=O)NCc3ccccc3)cn2)C1", "note": "(stereo not drawn)", "hERG current change (%, negative = inhibition) at 10uM": -18.4}
{"smiles": "COc1ccc(-c2nn(-c3ccccc3C)cc2CNC(C)c2cn(C)nc2C)cc1F", "note": "(stereo not drawn)", "hERG current change (%, negative = inhibition) at 10uM": -1.99}
{"smiles": "COc1cccc(/C=N/n2c(-c3n[nH]c4c3CCC4)n[nH]c2=S)c1O", "hERG current change (%, negative = inhibition) at 10uM": 30.3}
{"smiles": "O=C(c1ccco1)N1CCN(C(=O)C(c2ccccc2)c2ccccc2)CC1", "hERG current change (%, negative = inhibition) at 10uM": -23.4}
{"smiles": "O=C1NC(c2ccc(-c3ccccc3[N+](=O)[O-])o2)C(C(=O)c2ccccc2)C(O)(C(F)(F)F)N1", "note": "(stereo not drawn)", "hERG current change (%, negative = inhibition) at 10uM": -10}
{"smiles": "CC1CCCN(C(=O)CN2C(=O)CSc3ccc(S(=O)(=O)N4CCOCC4)cc32)C1", "note": "(stereo not drawn)", "hERG current change (%, negative = inhibition) at 10uM": 3.68}
{"smiles": "CCOC(=O)N1c2ccccc2C=CC1OCC", "note": "(stereo not drawn)", "hERG current change (%, negative = inhibition) at 10uM": 19.3}
{"smiles": "COc1cc(C)nc(NC(=O)COc2ccc(Cl)cc2C)n1", "hERG current change (%, negative = inhibition) at 10uM": 2.34}
{"smiles": "CCC(CC)C(=O)Nc1nnc(S(=O)(=O)N2CCCC2)s1", "hERG current change (%, negative = inhibition) at 10uM": -6.42}
{"smiles": "Nc1ccc(-c2nnc(-c3ccc(-c4ccccc4)cc3)o2)cc1", "hERG current change (%, negative = inhibition) at 10uM": 4.31}
{"smiles": "COc1cc(C(=O)Nc2nc(-c3ccc(C)cc3)cs2)ccc1OCC(=O)N1CCOCC1", "hERG current change (%, negative = inhibition) at 10uM": -18.9}
{"smiles": "Cn1c(SCc2nc3ccccc3n2CCO)nc2ccccc21", "hERG current change (%, negative = inhibition) at 10uM": -5.04}
{"smiles": "NS(=O)(=O)c1cccc(NC(=O)CSc2nnc(C3CC3)n2Cc2ccccc2)c1", "hERG current change (%, negative = inhibition) at 10uM": -2.84}
{"smiles": "COc1ccc(C(CC(=O)O)NC(=O)Nc2ccccc2)cc1OC", "note": "(stereo not drawn)", "hERG current change (%, negative = inhibition) at 10uM": 7.84}
{"smiles": "CN(C)/C=c1\\sc2c(C#N)cc(C(=O)c3ccc(Br)cc3)n2c1=O", "hERG current change (%, negative = inhibition) at 10uM": -12.5}
{"smiles": "C=CCN(CC=C)Cc1c(O)ccc2c1oc(=O)c1ccccc12", "hERG current change (%, negative = inhibition) at 10uM": -71.6}
{"smiles": "Cc1ccc(-n2nc3c(=O)n(CC(=O)c4ccc(F)cc4)nc(C)c3c2C)cc1", "hERG current change (%, negative = inhibition) at 10uM": -7.19}
{"smiles": "CC1CCCCN1C(=O)NC1CC(=O)N(c2ccc3c(c2)OCCO3)C1", "note": "(stereo not drawn)", "hERG current change (%, negative = inhibition) at 10uM": 5.7}
{"smiles": "Cc1ccc(Cl)cc1N1CCN(C(=O)CSc2ccsc2[N+](=O)[O-])CC1", "hERG current change (%, negative = inhibition) at 10uM": 0.335}
{"smiles": "CC(C)(C)OC(=O)[C@H](Cc1ccccc1)NC(=O)c1nc[nH]c1C(=O)NC1CCN(C(=O)OC(C)(C)C)CC1", "hERG current change (%, negative = inhibition) at 10uM": 4.55}
{"smiles": "CCN1CCN(C(=O)c2cc3nc(-c4ccccc4)cc(C(F)(F)F)n3n2)CC1", "hERG current change (%, negative = inhibition) at 10uM": -22}
{"smiles": "CC(C)Nc1ccc(C(CC(N)=O)NC(=O)Cc2ccc(Br)cc2)cc1[N+](=O)[O-]", "note": "(stereo not drawn)", "hERG current change (%, negative = inhibition) at 10uM": 0.496}
{"smiles": "COc1ccc(OC)c(S(=O)(=O)NCCCn2ccnc2)c1", "hERG current change (%, negative = inhibition) at 10uM": 9.36}
{"smiles": "Cc1cccc(C(=O)Oc2ccccc2/C=N/Nc2ccc([N+](=O)[O-])cc2)c1", "hERG current change (%, negative = inhibition) at 10uM": 10.3}
{"smiles": "CC1CCC(C(=O)NC(C(=O)NCc2ccccn2)C(C)C)CC1", "note": "(stereo not drawn)", "hERG current change (%, negative = inhibition) at 10uM": 2.73}
{"smiles": "CCCNCc1cc(OCC)c(OCC(N)=O)cc1Br", "hERG current change (%, negative = inhibition) at 10uM": 11.2}
{"smiles": "CCOC(=O)c1sc(NC(=O)C(C)Sc2nc(N)cc(=O)[nH]2)nc1C", "note": "(stereo not drawn)", "hERG current change (%, negative = inhibition) at 10uM": 2.51}
{"smiles": "O=C(CCCN1C(=O)/C(=C/c2cccc(Br)c2)SC1=S)NCCCN1CCOCC1", "hERG current change (%, negative = inhibition) at 10uM": -18.1}
{"smiles": "O=C(C1CCN(c2nnc(-n3cccc3)s2)CC1)N1CCN(c2cccc(C(F)(F)F)c2)CC1", "hERG current change (%, negative = inhibition) at 10uM": -22.8}
{"smiles": "CC(C)c1ccc(Nc2nc(Cl)nc(Cl)n2)cc1", "hERG current change (%, negative = inhibition) at 10uM": 19.1}
{"smiles": "CCOC(=O)C1(Cc2cccc(OC)c2)CCCN(Cc2cnn(C)c2)C1", "note": "(stereo not drawn)", "hERG current change (%, negative = inhibition) at 10uM": -3.67}
{"smiles": "CCOc1ccc2nc(SCC(=O)Nc3ccc4[nH]c(=O)[nH]c4c3)[nH]c2c1", "hERG current change (%, negative = inhibition) at 10uM": 27}
{"smiles": "COc1ccc2c(c1)CC(C(=O)Nc1ccc(Cl)cc1)/C(=N/O)O2", "note": "(stereo not drawn)", "hERG current change (%, negative = inhibition) at 10uM": 20.8}
{"smiles": "CC(Sc1nncn1C)C(=O)Nc1nnc(-c2ccccc2)s1", "note": "(stereo not drawn)", "hERG current change (%, negative = inhibition) at 10uM": 9.54}
{"smiles": "CCOc1ccc(OCCCN(C)C)cc1", "hERG current change (%, negative = inhibition) at 10uM": 4.13}
{"smiles": "CN(C)c1ccc(C(C#N)c2ccc(Cl)cc2)nn1", "note": "(stereo not drawn)", "hERG current change (%, negative = inhibition) at 10uM": -28.2}
{"smiles": "O=C(C/C(=N\\NC(=O)c1ccccc1Br)C(F)(F)F)c1cccs1", "hERG current change (%, negative = inhibition) at 10uM": -2.62}
{"smiles": "Cc1cc(Cn2nnc(-c3ccc(Br)cc3)n2)cc(C)c1O", "hERG current change (%, negative = inhibition) at 10uM": 12.2}
{"smiles": "COc1ccc(C2CC(c3ccc([N+](=O)[O-])cc3)=NN2C(=O)c2ccccc2)cc1OC", "note": "(stereo not drawn)", "hERG current change (%, negative = inhibition) at 10uM": -21.8}
{"smiles": "COC(=O)CSc1nnc(-c2c[nH]c3ccccc23)o1", "hERG current change (%, negative = inhibition) at 10uM": -3.69}
{"smiles": "Cc1cc(C(F)(F)F)n(-c2nc(C(=O)NNS(=O)(=O)c3ccccc3)cs2)n1", "hERG current change (%, negative = inhibition) at 10uM": -0.529}
{"smiles": "COC(=O)C1CCN(C(=O)CN2C(=O)NC(CCc3ccccc3)C2=O)CC1", "note": "(stereo not drawn)", "hERG current change (%, negative = inhibition) at 10uM": 3.41}
{"smiles": "CCOc1ccc(-n2c(O)c(C=Nc3ccc(N(CC)CC)cc3)c(=O)[nH]c2=O)cc1", "hERG current change (%, negative = inhibition) at 10uM": 8.93}
{"smiles": "Cc1ccc(S(=O)(=O)c2nc(C(C)(C)C)oc2N2CCOCC2)cc1", "hERG current change (%, negative = inhibition) at 10uM": -6.06}
{"smiles": "O=C(CC1C(=O)NCCN1C(=O)Nc1ccc(C(F)(F)F)cc1)Nc1ccc(F)cc1", "note": "(stereo not drawn)", "hERG current change (%, negative = inhibition) at 10uM": 14.6}
{"smiles": "CNC(C)C(=O)NC(C(=O)N1CCCC1C(=O)NNc1ccccc1)C(C)C.O=CO", "note": "(stereo not drawn)", "hERG current change (%, negative = inhibition) at 10uM": 5.01}
{"smiles": "COCCn1c(SCC(=O)Nc2nnc(C)s2)nnc1-c1ccco1", "hERG current change (%, negative = inhibition) at 10uM": 17.7}
{"smiles": "COC(=O)[C@@]12CCCN1[C@H](c1ccc(-c3ccccc3)cc1)[C@H]1C(=O)N(C)C(=O)[C@H]12.O=C(O)C(F)(F)F", "hERG current change (%, negative = inhibition) at 10uM": -14.2}
{"smiles": "CSc1ncccc1C(=O)Nc1ncc(C)s1", "hERG current change (%, negative = inhibition) at 10uM": 15.1}
